Experimental findings from the BET-seq Pho4 binding data (Le et al. 2018) are described below.

This is one part of the list. Values were computed here from the reads of four pooled replicates and scatter widely.

The target in this assay is T1, Pho4 (S. cerevisiae) (UniProt P07270).
T1 sequence: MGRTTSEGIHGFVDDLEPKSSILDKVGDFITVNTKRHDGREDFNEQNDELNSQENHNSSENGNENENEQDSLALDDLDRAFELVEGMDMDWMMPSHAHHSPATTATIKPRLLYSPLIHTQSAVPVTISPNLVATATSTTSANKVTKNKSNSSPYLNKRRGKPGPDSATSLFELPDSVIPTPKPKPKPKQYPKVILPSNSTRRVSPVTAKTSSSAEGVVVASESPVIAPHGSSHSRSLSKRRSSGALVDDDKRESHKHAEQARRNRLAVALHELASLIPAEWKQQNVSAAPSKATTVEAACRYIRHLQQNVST
Put plainly: relative binding free energy (BET-seq); higher = weaker binding. The following applies: reference: library average.
Take AATATCACGTGGTAAT: the “relative binding free energy” value amounted to 0.13 kcal/mol.
With TGGGTCACGTGTCGCT the figure was 0.04 kcal/mol; with GGGGGCACGTGCAATT, -0.02 kcal/mol.
With TGAGTCACGTGAACGT the figure was 0.24 kcal/mol; with TGGATCACGTGTGTAA, 0.12 kcal/mol; with CTATTCACGTGAATAT, 0.58 kcal/mol.
With GTGTACACGTGTCGAG, the “relative binding free energy” value is 0.15 kcal/mol.
With AAAGACACGTGCTGGG the figure was 0.02 kcal/mol.
With TTCTTCACGTGCGTGA the figure was 0.25 kcal/mol; with GTGGTCACGTGGGACC, 0.14 kcal/mol; with GGATGCACGTGAGTGG, 0.12 kcal/mol.
The same measure for GCAGGCACGTGTCGGG: 0.01 kcal/mol; for GAGTGCACGTGAGTGC: 0.3 kcal/mol.
For CGTGGCACGTGGGGTC, the “relative binding free energy” value is -0.27 kcal/mol.
Regarding AGGGGCACGTGAGGAC, the “relative binding free energy” value turned out to be 0.1 kcal/mol.
CGGGGCACGTGCGTGC: the “relative binding free energy” value is -0.28 kcal/mol.
In the case of GATATCACGTGTATGA, the “relative binding free energy” value came to 0.15 kcal/mol.
For the sequence TGCGACACGTGAGGTG, the “relative binding free energy” value was 0.21 kcal/mol.
The same measure for TAGTGCACGTGGTTAT: 0.01 kcal/mol; for TTGGTCACGTGGATTT: 0.19 kcal/mol.
With TCTGACACGTGTAGTG the figure was 0.1 kcal/mol.
The same measure for AGAGTCACGTGGCAGT: -0.07 kcal/mol; for AGAATCACGTGTGAGG: 0.33 kcal/mol.
For the sequence CATTGCACGTGTCGGG, the “relative binding free energy” value is 0.05 kcal/mol.
The same measure for ATAGACACGTGGGAAG: -0.02 kcal/mol; for AGCGTCACGTGGGTTA: -0.13 kcal/mol.
The same measure for TCGTTCACGTGTGGTT: 0.33 kcal/mol; for GATGTCACGTGATCGT: 0.19 kcal/mol; for GGTCGCACGTGTGTTG: 0.05 kcal/mol.
The same measure for CTGTTCACGTGTTGTG: 0.18 kcal/mol.
For ATGATCACGTGAAGTT, the “relative binding free energy” value turned out to be 0.25 kcal/mol.
Turning to TGAATCACGTGGGTGC, the “relative binding free energy” value was 0.13 kcal/mol.
With GGGTACACGTGGGGGT the figure was 0.03 kcal/mol; with ATGGGCACGTGGCTTC, -0.12 kcal/mol; with TGAGGCACGTGATGTT, -0.03 kcal/mol.
The same measure for TGGGTCACGTGGCAGA: 0.05 kcal/mol; for TGGTTCACGTGGGCAA: 0.14 kcal/mol; for GAAGGCACGTGGGAGT: -0.11 kcal/mol.
The same measure for GTGTTCACGTGGTAGT: 0.23 kcal/mol.
Take AGGGTCACGTGAGGTG: the “relative binding free energy” value stood at 0.28 kcal/mol.
With TGATACACGTGTTGTA the figure was 0.08 kcal/mol; with TCGTACACGTGGAATT, 0.26 kcal/mol; with TCGTACACGTGATTGT, 0.27 kcal/mol.
With ATGCGCACGTGTTATT the figure was -0.03 kcal/mol; with ATTTTCACGTGAACAG, 0.41 kcal/mol; with TATAGCACGTGGCCGG, -0.24 kcal/mol.
The same measure for TAATTCACGTGATGTA: 0.21 kcal/mol; for GGAATCACGTGTGGTG: 0.05 kcal/mol.
For GATTGCACGTGGAGCT, the “relative binding free energy” value was found to be 0.1 kcal/mol.
With AGGTACACGTGGCATG, the “relative binding free energy” value is -0.08 kcal/mol.
The same measure for GTAGGCACGTGCTGGA: -0.14 kcal/mol; for CGTTTCACGTGAGTCT: 0.37 kcal/mol.
With GTTCTCACGTGTGTGA the figure was 0.21 kcal/mol.
With GTGTCCACGTGGCTGT the figure was 0.02 kcal/mol; with TTTGGCACGTGTATCC, 0.04 kcal/mol; with GACGGCACGTGCAGGT, 0 kcal/mol.
For the sequence TAAGACACGTGTGTTG, the “relative binding free energy” value is 0.14 kcal/mol.
With TTGGTCACGTGCCTAG the figure was 0.08 kcal/mol; with ACAAGCACGTGTGTGT, -0.1 kcal/mol; with GATCTCACGTGTGGAG, 0.27 kcal/mol.
With TGGGGCACGTGCTCTT the figure was -0.12 kcal/mol; with GCTTTCACGTGTTTAG, 0.42 kcal/mol; with AGGGGCACGTGCTGTT, -0.28 kcal/mol.
The same measure for GAGTTCACGTGCGGAG: 0.29 kcal/mol.
On to TATGCCACGTGGTTGA, for which the “relative binding free energy” value is -0.19 kcal/mol.
With GAGGACACGTGTGCGT the figure was 0.15 kcal/mol; with GGATACACGTGGTAGC, 0.1 kcal/mol; with GGGATCACGTGGGTCT, 0.04 kcal/mol.
With CTATTCACGTGGGGAG the figure was 0.19 kcal/mol; with TTGAACACGTGACTGG, 0.35 kcal/mol; with GTGTGCACGTGGATTC, 0.03 kcal/mol.
With TTAGTCACGTGGGGGA the figure was -0.01 kcal/mol; with ATAGACACGTGTTAAT, 0.11 kcal/mol; with TGAAGCACGTGAATGG, 0.3 kcal/mol.
For GTTTGCACGTGAATGG, the “relative binding free energy” value stood at 0.33 kcal/mol.
With TTCAGCACGTGAGGGT the figure was 0.14 kcal/mol.
Take TTGCGCACGTGTTTCA: the “relative binding free energy” value came out at 0.01 kcal/mol.
With AGGTGCACGTGTTGCC the figure was 0.06 kcal/mol; with TGCGGCACGTGTTTGG, -0.08 kcal/mol; with ATTATCACGTGTGAAG, 0.33 kcal/mol.
The same measure for AGTAGCACGTGAGTGG: 0.01 kcal/mol; for GGCGTCACGTGTGACA: 0.38 kcal/mol.
With AGTGTCACGTGAGAGC the figure was 0.15 kcal/mol.
Consider ATAATCACGTGTTAAT, for which the “relative binding free energy” value amounted to 0.12 kcal/mol.
Take AATGTCACGTGTCGGA: the “relative binding free energy” value is -0.02 kcal/mol.
The same measure for GGTTTCACGTGTGTCC: 0.43 kcal/mol.
The same measure for ATGTTCACGTGTAGGT: 0.22 kcal/mol; for GTTCTCACGTGTTATT: 0.29 kcal/mol; for TGTGTCACGTGACGTT: 0.16 kcal/mol.
The same measure for TGTGACACGTGATCGT: -0.05 kcal/mol; for TTAGACACGTGTTCTG: -0.11 kcal/mol.
For the sequence GTAATCACGTGATGTT, the “relative binding free energy” value stood at 0.25 kcal/mol.
With TGTGTCACGTGGCAAT the figure was -0.06 kcal/mol.
With TTCGTCACGTGGAAGG the figure was 0.22 kcal/mol; with GGGTACACGTGGGATA, 0 kcal/mol; with TATGGCACGTGTCGGA, -0.13 kcal/mol.
The same measure for CTTGGCACGTGGGGCT: -0.24 kcal/mol.
In the case of AGGTGCACGTGTAGTG, the “relative binding free energy” value came to 0.05 kcal/mol.
With TAACTCACGTGGTAGG the figure was 0.23 kcal/mol; with TAGGACACGTGTCGTT, 0.02 kcal/mol.
On to AATTGCACGTGAGCTG, for which the “relative binding free energy” value was found to be 0.28 kcal/mol.
With GGTAGCACGTGCCGTT the figure was -0.04 kcal/mol; with GTGTGCACGTGTTAAT, 0.09 kcal/mol; with TATAGCACGTGAGTGA, 0.01 kcal/mol.
The same measure for AGGTACACGTGTATGA: -0.06 kcal/mol.
With CAGAGCACGTGGGTTA the figure was -0.17 kcal/mol; with GGCGACACGTGGTTTA, 0.14 kcal/mol; with ATCGTCACGTGTGTTA, 0.11 kcal/mol.
In the case of TATTCCACGTGGATTT, the “relative binding free energy” value was found to be 0.14 kcal/mol.
The same measure for TGAGTCACGTGCGTTG: 0.06 kcal/mol; for GCTCGCACGTGGTGTG: -0.13 kcal/mol.
The same measure for CTCGGCACGTGGGATG: -0.22 kcal/mol.
With TGGCTCACGTGGAGGG the figure was 0.04 kcal/mol; with TGGCTCACGTGGCTGT, 0.01 kcal/mol; with TCGGGCACGTGCGGCG, -0.15 kcal/mol.
